# Reference: PubChem BioAssay AID1240 (Sanford-Burnham Center for Chemical Genomics, 2008)
# In all, about 50,000 compounds went through this assay and about 800 (1.6%) showed an effect of 50% or more. The list shows a part of the results.
# Biological target: Bcl-2-like protein 10 (Homo sapiens) (UniProt Q9HD36)
# Experiment: TR3 peptide-Bcl-B binding displacers, biochemical primary FP assay, phenotype converters (AID 1240);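 further: 0% = Bcl-B with tracer peptide and DMSO and 100% = tracer peptide lacking Bcl-B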
# Conditions: GST-Bcl-B / FITC-TR3 peptide fluorescence polarization; stronger effect = higher value; compound at 3.75 mg/L
# UniProt Q9HD36, sequence (Q9HD36 whole entry, looked up): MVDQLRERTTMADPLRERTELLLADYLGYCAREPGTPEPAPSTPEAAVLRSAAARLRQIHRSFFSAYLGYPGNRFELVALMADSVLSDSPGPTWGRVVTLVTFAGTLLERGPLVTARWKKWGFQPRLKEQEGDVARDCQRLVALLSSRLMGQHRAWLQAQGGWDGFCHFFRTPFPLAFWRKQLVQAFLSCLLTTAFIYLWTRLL
row,SMILES,displacement [%]
1,Cc1ccccc1N1C(=O)NC(=O)/C(=C\c2ccc(OCc3cccc(C(=O)O)c3)cc2)C1=O,13.6
2,CC/C(C)=N\NC(=O)c1cc(-c2ccccc2)nc2ccccc12,-4.5
3,COc1ccccc1C(=O)Nc1c(F)c(F)c(F)c(F)c1F,0.6
4,CC1=C(C(=O)OCCOc2ccccc2)C(c2ccsc2)NC(=O)N1C (stereo not given),2.5
5,CC1(C)CC(=O)C2=C(C1)NC1=C(C(=O)c3ccccc31)C2c1ccc(OCc2ccccc2)cc1 (stereo not given),-1
6,COc1cc(NC(=O)c2ccc([N+](=O)[O-])cc2Cl)ccc1NC(=O)c1ccco1,4.5
7,O=C(Nc1ccccc1)Nc1nnc(COc2ccc(Br)cc2)s1,-2.9
8,Cc1ccc(N2NC(=O)/C(=C/c3ccc(Cl)cc3)C2=O)cc1,18.2
9,CC(NC(=O)CSc1nnc(SCC(=O)NC(C)c2ccccc2)s1)c1ccccc1 (stereo not given),-5.8
10,NS(=O)(=O)c1cccc(NC(=O)c2ccc3c(c2)OCCO3)c1,7.4
11,CC1(C)CC(=O)C2=C(C1)Nc1ccc3ccccc3c1C2c1cccc([N+](=O)[O-])c1 (stereo not given),-0.1
12,CCOC(=O)CNC(=S)Nc1ccc(F)cc1,-7
13,Cc1ccc(N2CCN(S(=O)(=O)c3ccc(C)cc3)CC2)cc1,4.5
14,CCOC(=O)C(C)Oc1ccc2c(=O)c(-c3ccccc3OC)coc2c1 (stereo not given),-4.4
15,O=C(C#Cc1ccccc1)Nc1ccc(Cl)cc1,-2.9
16,COC(=O)c1cccc(NC(=O)c2ccc[n+]([O-])c2)c1,-0.4
17,O=C(N/N=C\c1cccc2ccccc12)C1CC(=O)N(c2ccc(F)cc2)C1 (stereo not given),-63.4
18,Oc1c(Br)ccc(Cl)c1C=Nc1cccc2nsnc12,29.6
19,c1ccc(CSc2ncnc3nc[nH]c23)cc1,13.7
20,Cc1ccc(-c2nc3ccccc3o2)cc1NC(=O)c1cccc(Cl)c1,17
21,Cc1ccc(-c2ccc(C=C3C(=O)NC(=O)NC3=O)o2)c([N+](=O)[O-])c1,1.3
22,CC(C(=O)c1ccc(-c2ccccc2)cc1)[n+]1cccc(C(N)=O)c1 (stereo not given),7.5
23,CCOC(=O)c1c(N)sc(C)c1-c1ccc(F)cc1,-5.5
24,CC1=CC(=O)C=C/C1=N\OS(=O)(=O)c1ccc(C)cc1,32.6
25,Cc1cc(Cl)ccc1OC(C)C(=O)NCc1cccnc1 (stereo not given),-7.2
26,COc1cc(NC(=O)c2ccccc2Br)ccc1NC(=O)c1ccco1,2.1
27,CCN1C(=O)/C(=C\C=C\c2cccc([N+](=O)[O-])c2)SC1=S,-0.2
28,COc1cc(OC)c(C2Nc3ccccc3NC3=C2C(=O)CC(c2ccccc2)C3)cc1OC (stereo not given),9.4

row,SMILES,displacement [%]
1,CC1CCc2c(sc(NC(=O)CCCOc3ccc(Cl)cc3Cl)c2C(N)=O)C1 (stereo not given),-9
2,O=C(NCCCO)c1ccccc1C(=O)c1ccccc1,18.9
3,O=C1CSC2(C(=O)Nc3ccccc32)N1c1cccc(C(F)(F)F)c1 (stereo not given),8.4
4,CCc1ccc(NC(=O)CSCC(=O)Nc2ccccc2)cc1,-16.9
5,O=S(=O)(NCCc1ccccc1)c1cccs1,1.7
6,O=C(COc1ccccc1)N1CCN(c2ccccn2)CC1,-4
7,O=C(Nc1cc2cc(Cl)ccc2oc1=O)c1ccccc1,3.6
8,Cc1c(C)c2ccc(OCC(=O)N(C)C)c(C)c2oc1=O,10.8
9,O=C1/C(=C/c2ccc(Br)cc2)SC(=S)N1c1cccc(Br)c1,-2.3
10,Cc1cnn(-c2cc(N/N=C/c3ccc(Br)cc3)ncn2)c1,-5.8
11,C=CCn1c(SCC(=O)N2CCOCC2)nc2sc(C)c(C)c2c1=O,-8.5
12,COC(=O)c1c(NC(=O)CCc2ccccc2)sc2c1CCCC2,2
13,Cc1c(Cl)cccc1NCN1C(=O)c2ccccc2C1=O,-1
14,COc1ccc2c(c1)/C(=N/OC(=O)c1cccs1)CCC2,-13.6
15,CN(C)c1ccc(N=Cc2ccco2)cc1,16.8
16,CN1CCN(C(=O)CCCN2C(=O)/C(=C/c3ccccc3)SC2=S)CC1,7.5
17,O=C1C=CC(=NOS(=O)(=O)c2ccccc2)C=C1,20.5
18,CC(=O)c1ccc(Nc2ccc([N+](=O)[O-])cc2[N+](=O)[O-])cc1,9.2
19,COc1cc(OC)c(/C=C2\C(=O)NC(=S)N(c3ccc(C)cc3)C2=O)cc1Br,4.7
20,O=C1NC(=S)S/C1=C/c1cccn1-c1cccc([N+](=O)[O-])c1,15.9
21,Cc1ccc(NC(=S)NNC(=O)CCn2c3ccccc3c3ccccc32)cc1,-12.3
22,CN(C)c1ccc(/C=C/C=N/NC(=O)c2ccccc2O)cc1,-33.9
23,Oc1ccc(Cl)cc1/C=N/Nc1cc(N2CCCC2)nc(N2CCCC2)n1,15.7
24,Cc1cccc(C(=O)NC2CC(C)(C)NC(C)(C)C2)c1,-9.9
25,Cc1sc(NC(=O)c2ccccc2[N+](=O)[O-])nc1-c1ccccc1,11.3
26,COc1cc(C2Nc3ccc4ncccc4c3C3=C2C(=O)CCC3)cc(OC)c1OC (stereo not given),3.7
27,CCOC(=O)c1c(NC(=S)Nc2ccccc2)sc2c1CCN(Cc1ccccc1)C2,-58.9
